Source: the supplement of paper PMC9151546
Most values come without repeats; read them as rough.

Key:
CHO-K1 [1] = experiment: relative survival (nuclei to bead ratio vs DMSO control) (% of vehicle control); higher = more surviving cells
Experimental: (§1)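 Flow-cytometric in vitro micronucleus assay (Litron MicroFlow) in CHO-K1 cells in 96-well plates, 19 concentrations (4.5-200 µM, n=1 per concentration). Without S9, cells were exposed for 24 h and sampled at 48 h. With Aroclor 1254-induced rat liver S9, cells were exposed for 3-4 h and sampled at 27-28 h. Read-outs are %MN and %hypodiploid nuclei relative to nucleated events, and relative survival as the nuclei-to-bead ratio versus the 1% DMSO vehicle control (x100).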

CHO-K1 [2] = experiment: micronucleus frequency (% of nucleated events); higher = more micronuclei (genotoxic)
CHO-K1 [3] = experiment: hypodiploid nuclei frequency (% of nucleated events); higher = more hypodiploid events (aneugenic)
Experimental: as §1
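Throughout, for hypodiploid nuclei frequency (% of nucleated events): hypodiploid nuclei gated on a flow cytometer with 488 nm excitation after SYTOX Green staining, cultures at 37 °C, positive controls vinblastine without S9 and cyclophosphamide with S9.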
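Throughout, for micronucleus frequency (% of nucleated events): cells lysed with nuclei stained by SYTOX Green, then micronucleus-gated events counted against nucleated events by flow cytometry with 488 nm excitation.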
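Throughout, for relative survival (nuclei to bead ratio vs DMSO control): Lysed-cell nuclei stained with SYTOX Green and counted against counting beads by flow cytometry at 488 nm excitation, with vinblastine (no S9) and cyclophosphamide (plus S9) as positive controls.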

CC(C)=CCC/C(C)=C/C=O [3,7-Dimethyl-2,6-octadienal]
Conditions | hypodiploid nuclei frequency, CHO-K1 [3] [%] | micronucleus frequency, CHO-K1 [2] [%] | relative survival, CHO-K1 [1]
concentration: 4.5 (µM), S9 metabolic activation: with S9, exposure time: 3-4 hours | 0.2 | 0.86 | 105
concentration: 4.5 (µM), S9 metabolic activation: without S9, exposure time: 24 hours | 0.76 | 1.54 | 116
concentration: 5.63 (µM), S9 metabolic activation: with S9, exposure time: 3-4 hours | 0.32 | 0.94 | 104
concentration: 5.63 (µM), S9 metabolic activation: without S9, exposure time: 24 hours | 0.4 | 1.38 | 102
concentration: 7.04 (µM), S9 metabolic activation: with S9, exposure time: 3-4 hours | 0.34 | 0.9 | 123
concentration: 7.04 (µM), S9 metabolic activation: without S9, exposure time: 24 hours | 0.7 | 1.44 | 101
concentration: 8.8 (µM), S9 metabolic activation: with S9, exposure time: 3-4 hours | 0.3 | 1.34 | 125
concentration: 8.8 (µM), S9 metabolic activation: without S9, exposure time: 24 hours | 0.7 | 1.04 | 106
concentration: 11 (µM), S9 metabolic activation: with S9, exposure time: 3-4 hours | 0.22 | 0.78 | 113
concentration: 11 (µM), S9 metabolic activation: without S9, exposure time: 24 hours | 0.64 | 1.14 | 95.9
concentration: 13.7 (µM), S9 metabolic activation: with S9, exposure time: 3-4 hours | 0.18 | 1.3 | 108
concentration: 13.7 (µM), S9 metabolic activation: without S9, exposure time: 24 hours | 0.68 | 1.6 | 113
concentration: 17.2 (µM), S9 metabolic activation: with S9, exposure time: 3-4 hours | 0.18 | 0.82 | 115
concentration: 17.2 (µM), S9 metabolic activation: without S9, exposure time: 24 hours | 0.68 | 1.06 | 102
concentration: 21.5 (µM), S9 metabolic activation: with S9, exposure time: 3-4 hours | 0.12 | 0.94 | 119
concentration: 21.5 (µM), S9 metabolic activation: without S9, exposure time: 24 hours | 0.5 | 1.22 | 68.8
concentration: 26.8 (µM), S9 metabolic activation: with S9, exposure time: 3-4 hours | 0.24 | 0.8 | 111
concentration: 26.8 (µM), S9 metabolic activation: without S9, exposure time: 24 hours | 0.8 | 1.1 | 65.8
concentration: 33.6 (µM), S9 metabolic activation: with S9, exposure time: 3-4 hours | 0.28 | 0.74 | 102
concentration: 33.6 (µM), S9 metabolic activation: without S9, exposure time: 24 hours | 2.58 | 1.22 | 54.7
concentration: 41.9 (µM), S9 metabolic activation: with S9, exposure time: 3-4 hours | 0.3 | 0.9 | 103
concentration: 41.9 (µM), S9 metabolic activation: without S9, exposure time: 24 hours | – | – | 40
concentration: 52.4 (µM), S9 metabolic activation: with S9, exposure time: 3-4 hours | 0.22 | 0.94 | 92.9
concentration: 52.4 (µM), S9 metabolic activation: without S9, exposure time: 24 hours | 1.14 | 1.36 | 87.9
concentration: 65.5 (µM), S9 metabolic activation: with S9, exposure time: 3-4 hours | 0.22 | 0.88 | 110
concentration: 65.5 (µM), S9 metabolic activation: without S9, exposure time: 24 hours | 1.02 | 1.72 | 99.1
concentration: 81.9 (µM), S9 metabolic activation: with S9, exposure time: 3-4 hours | 0.24 | 1.22 | 99.8
concentration: 81.9 (µM), S9 metabolic activation: without S9, exposure time: 24 hours | 0.94 | 1.44 | 75.9
concentration: 102 (µM), S9 metabolic activation: with S9, exposure time: 3-4 hours | 0.3 | 1.52 | 101
concentration: 102 (µM), S9 metabolic activation: without S9, exposure time: 24 hours | 1.04 | 1.3 | 71.1
concentration: 128 (µM), S9 metabolic activation: with S9, exposure time: 3-4 hours | 0.28 | 1.2 | 107
concentration: 128 (µM), S9 metabolic activation: without S9, exposure time: 24 hours | 0.96 | 1.74 | 88.2
concentration: 160 (µM), S9 metabolic activation: with S9, exposure time: 3-4 hours | 0.12 | 1.1 | 109
concentration: 160 (µM), S9 metabolic activation: without S9, exposure time: 24 hours | 1.36 | 1.9 | 72.1
concentration: 200 (µM), S9 metabolic activation: with S9, exposure time: 3-4 hours | 0.2 | 1.46 | 106
concentration: 200 (µM), S9 metabolic activation: without S9, exposure time: 24 hours | 1.46 | 2.04 | 75.9

OCCCBr [3-Bromo-1-propanol]
Conditions | hypodiploid nuclei frequency, CHO-K1 [3] [%] | micronucleus frequency, CHO-K1 [2] [%] | relative survival, CHO-K1 [1]
concentration: 4.5 (µM), S9 metabolic activation: with S9, exposure time: 3-4 hours | 0.36 | 1.72 | 107
concentration: 4.5 (µM), S9 metabolic activation: without S9, exposure time: 24 hours | 0.8 | 1.77 | 112
concentration: 5.63 (µM), S9 metabolic activation: with S9, exposure time: 3-4 hours | 0.3 | 1.48 | 97.2
concentration: 5.63 (µM), S9 metabolic activation: without S9, exposure time: 24 hours | 0.91 | 1.58 | 122
concentration: 7.04 (µM), S9 metabolic activation: with S9, exposure time: 3-4 hours | 0.14 | 1 | 90.5
concentration: 7.04 (µM), S9 metabolic activation: without S9, exposure time: 24 hours | 0.98 | 1.64 | 99.4
concentration: 8.8 (µM), S9 metabolic activation: with S9, exposure time: 3-4 hours | 0.18 | 1.38 | 137
concentration: 8.8 (µM), S9 metabolic activation: without S9, exposure time: 24 hours | 0.71 | 1.79 | 115
concentration: 11 (µM), S9 metabolic activation: with S9, exposure time: 3-4 hours | 0.18 | 1.02 | 109
concentration: 11 (µM), S9 metabolic activation: without S9, exposure time: 24 hours | 0.76 | 2.27 | 131.8
concentration: 13.7 (µM), S9 metabolic activation: with S9, exposure time: 3-4 hours | 0.26 | 1.04 | 107
concentration: 13.7 (µM), S9 metabolic activation: without S9, exposure time: 24 hours | 0.7 | 1.72 | 136
concentration: 17.2 (µM), S9 metabolic activation: with S9, exposure time: 3-4 hours | 0.12 | 0.92 | 124
concentration: 17.2 (µM), S9 metabolic activation: without S9, exposure time: 24 hours | 0.61 | 1.44 | 139
concentration: 21.5 (µM), S9 metabolic activation: with S9, exposure time: 3-4 hours | 0.2 | 1.1 | 130
concentration: 21.5 (µM), S9 metabolic activation: without S9, exposure time: 24 hours | 0.74 | 1.69 | 105
concentration: 26.8 (µM), S9 metabolic activation: with S9, exposure time: 3-4 hours | 0.24 | 1.26 | 93
concentration: 26.8 (µM), S9 metabolic activation: without S9, exposure time: 24 hours | 30.8 | 1.63 | 71.2
concentration: 33.6 (µM), S9 metabolic activation: with S9, exposure time: 3-4 hours | 0.5 | 1.92 | 91.7
concentration: 33.6 (µM), S9 metabolic activation: without S9, exposure time: 24 hours | 9.78 | 1.27 | 83.7
concentration: 41.9 (µM), S9 metabolic activation: with S9, exposure time: 3-4 hours | 0.22 | 1.38 | 76.4
concentration: 41.9 (µM), S9 metabolic activation: without S9, exposure time: 24 hours | 20.7 | 1.69 | 87.6
concentration: 52.4 (µM), S9 metabolic activation: with S9, exposure time: 3-4 hours | 0.16 | 1.18 | 107
concentration: 52.4 (µM), S9 metabolic activation: without S9, exposure time: 24 hours | 1.04 | 1.64 | 96.3
concentration: 65.5 (µM), S9 metabolic activation: with S9, exposure time: 3-4 hours | 0.34 | 1.6 | 96.4
concentration: 65.5 (µM), S9 metabolic activation: without S9, exposure time: 24 hours | 3.4 | 1.75 | 81.2
concentration: 81.9 (µM), S9 metabolic activation: with S9, exposure time: 3-4 hours | 0.26 | 1.84 | 111
concentration: 81.9 (µM), S9 metabolic activation: without S9, exposure time: 24 hours | 1.34 | 1.93 | 105
concentration: 102 (µM), S9 metabolic activation: with S9, exposure time: 3-4 hours | 0.26 | 1.6 | 102
concentration: 102 (µM), S9 metabolic activation: without S9, exposure time: 24 hours | 4.29 | 1.59 | 83.9
concentration: 128 (µM), S9 metabolic activation: with S9, exposure time: 3-4 hours | 0.2 | 1.88 | 108
concentration: 128 (µM), S9 metabolic activation: without S9, exposure time: 24 hours | 1.51 | 1.82 | 111
concentration: 160 (µM), S9 metabolic activation: with S9, exposure time: 3-4 hours | 0.42 | 0.96 | 100
concentration: 160 (µM), S9 metabolic activation: without S9, exposure time: 24 hours | 1.28 | 1.97 | 90.9
concentration: 200 (µM), S9 metabolic activation: with S9, exposure time: 3-4 hours | 0.14 | 1.4 | 107
concentration: 200 (µM), S9 metabolic activation: without S9, exposure time: 24 hours | 1.33 | 2.11 | 101
